Test results taken from the supplement of paper PMC4967469.
IC50 is the fitted dose that halves viability relative to control wells, and lower means more sensitive; fits outside the tested doses are given as limits. The AUC spans the tested range (256-fold, ending at the top dose) of the same fit; values near 1 show little effect. For some assays here: A top dose marked as inferred was derived from the fitted curves, not read from the paper. For some assays here: An entry number marks a drug with two screens in the source, which often give different values.

Columns and labels:
Test in all cases: Viability of human cancer cell lines after 72 h of drug (GDSC screen)
[1] = compound: CC(C)(C)c1cc(NC(=O)Nc2ccc(-c3cn4c(n3)sc3cc(OCCN5CCOCC5)ccc34)cc2)no1 [AC220]; conditions: top dose 1.024 µM; top dose inferred
Protocol: (§1)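 Human cancer cell lines in 384-well plates, medium with 10% serum, drug for 72 h over a 256-fold dose range (nine 2-fold or five 4-fold steps up to the top dose). Adherent lines were fixed and stained with the nucleic acid dye Syto60, suspension lines read with resazurin; signal relative to control wells, capped at 0 and 100%. One two-parameter sigmoid per drug and line, fitted in a mixed model over all curves with the slope shared within a line.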

[2] = compound: O=c1[nH]cc(F)c(=O)[nH]1 [5-Fluorouracil]; conditions: top dose 32 µM; top dose inferred
Protocol: as §1

[3] = compound: OC[C@H](Cc1ccccc1)Nc1nc(Oc2ccc3c(c2)CCC3)nc2c1ncn2Cc1ccc(-c2ccccc2)cc1 [QS11]; conditions: top dose 10.24 µM
Protocol: as §1

[4] = compound: COc1cc(F)c(F)c(Nc2ccc(I)cc2F)c1NS(=O)(=O)C1(C[C@H](O)CO)CC1 [RDEA119]; conditions: top dose 5 µM, top dose inferred
Protocol: as §1

[5] = compound: C#Cc1cccc(Nc2ncnc3cc(OC)c(OCCCCCCC(=O)NO)cc23)c1 [CUDC-101]; conditions: top dose 5.12 µM; top dose inferred
Protocol: as §1

[6] = compound: NCC(=O)Nc1ccc(-n2nc(C(F)(F)F)cc2-c2ccc3c(ccc4ccccc43)c2)cc1 [OSU-03012]; conditions: top dose 16 µM; top dose inferred
Protocol: as §1

[7] = compound: Fc1cc(-c2ccnc(Nc3ccc(-n4cnc(N5CCOCC5)n4)cc3)n2)cc(N2CCOCC2)c1 [JNK-9L]; conditions: top dose 5.12 µM; top dose inferred
Protocol: as §1

Cell Line | AUC [1] | IC50 [1] [nM] | AUC [2] | IC50 [2] [nM] | AUC [3] | IC50 [3] [nM] | AUC ([4]; screen: GDSC drug entry 1014) | IC50 ([4]; screen: GDSC drug entry 1014) [nM] | AUC ([4]; screen: GDSC drug entry 1526) | IC50 ([4]; screen: GDSC drug entry 1526) [nM] | AUC [5] | IC50 [5] [nM] | AUC [6] | IC50 [6] [nM] | AUC [7] | IC50 [7] [nM]
A388 (skin, adherent) | 0.983 | > 1020 | 0.883 | > 32000 | 0.931 | > 10200 | 0.867 | > 5000 | 0.875 | > 5000 | 0.634 | 797 | 0.69 | 3720 | 0.773 | 2290
A673 (rhabdomyosarcoma, adherent) | 0.99 | > 1020 | 0.969 | > 32000 | 0.938 | > 10200 | 0.95 | > 5000 | 0.941 | > 5000 | 0.71 | 1160 | 0.697 | 3340 | 0.624 | 674
ABC-1 (lung adenocarcinoma, adherent) | 0.983 | > 1020 | 0.834 | 27000 | 0.861 | > 10200 | – | – | 0.905 | > 5000 | 0.469 | 259 | 0.641 | 2680 | 0.627 | 774
AGS (stomach, adherent) | 0.99 | > 1020 | 0.935 | > 32000 | 0.82 | 5100 | 0.371 | 144 | – | – | 0.507 | 333 | 0.527 | 1170 | 0.495 | 311
ALL-PO (lymphoblastic leukaemia, suspension) | 0.363 | 26.1 | 0.381 | 922 | 0.918 | > 10200 | 0.773 | 2060 | 0.978 | > 5000 | 0.117 | < 20 | 0.692 | 3590 | 0.626 | 727
ALL-SIL (T-cell leukaemia, suspension) | 0.928 | > 1020 | 0.922 | > 32000 | 0.98 | > 10200 | 0.962 | > 5000 | 0.975 | > 5000 | 0.166 | 37.8 | 0.666 | 2680 | 0.652 | 790
AM-38 (glioma, semi-adherent) | 0.974 | > 1020 | 0.624 | 4430 | 0.938 | > 10200 | 0.926 | > 5000 | 0.986 | > 5000 | 0.618 | 679 | 0.726 | 4460 | 0.701 | 1190
AMO-1 (haematopoietic neoplasm, suspension) | 0.953 | > 1020 | 0.655 | 5030 | 0.928 | > 10200 | 0.856 | 3170 | 0.903 | 4980 | 0.372 | 150 | 0.71 | 3530 | 0.615 | 630
AN3-CA (endometrium, adherent) | 0.984 | > 1020 | 0.978 | > 32000 | 0.907 | > 10200 | – | – | 0.903 | > 5000 | 0.681 | 1080 | 0.639 | 2510 | 0.49 | 299
ARH-77 (myeloma, suspension) | 0.97 | > 1020 | 0.504 | 2050 | 0.944 | > 10200 | 0.979 | > 5000 | 0.961 | > 5000 | 0.38 | 152 | 0.796 | 7170 | 0.609 | 629
ASH-3 (thyroid, adherent) | 0.988 | > 1020 | 0.988 | > 32000 | 0.926 | > 10200 | 0.647 | 795 | 0.429 | 200 | 0.922 | > 5120 | 0.67 | 2970 | 0.62 | 683
ATN-1 (T-cell lymphoblastic leukaemia, suspension) | 0.98 | > 1020 | 0.378 | 946 | 0.976 | > 10200 | 0.975 | > 5000 | 0.985 | > 5000 | 0.375 | 148 | 0.875 | 13900 | 0.608 | 618
AU565 (breast, adherent) | 0.947 | > 1020 | 0.941 | > 32000 | 0.841 | 8360 | 0.97 | > 5000 | – | – | 0.457 | 242 | 0.766 | 6550 | 0.564 | 488
BB49-HNC (head and neck, adherent) | 0.978 | > 1020 | 0.977 | > 32000 | 0.969 | > 10200 | 0.775 | 2850 | 0.468 | 247 | 0.825 | 4920 | 0.873 | > 16000 | 0.743 | 2160
BB65-RCC (kidney, adherent) | 0.983 | > 1020 | 0.944 | > 32000 | 0.825 | 7400 | – | – | 0.748 | 1830 | 0.56 | 478 | 0.765 | 6730 | 0.65 | 893
BC-1 (B-cell lymphoma, suspension) | 0.963 | > 1020 | 0.626 | 4210 | 0.896 | 9320 | 0.986 | > 5000 | 0.956 | > 5000 | 0.332 | 118 | 0.684 | 3000 | 0.517 | 354
BCPAP (thyroid, adherent) | 0.989 | > 1020 | 0.789 | 12800 | 0.919 | > 10200 | 0.776 | 1810 | 0.752 | 1520 | 0.479 | 282 | 0.763 | 5260 | 0.557 | 451
BE2-M17 (neuroblastoma, adherent) | 0.987 | > 1020 | 0.904 | > 32000 | 0.933 | > 10200 | 0.739 | 1550 | 0.858 | 4310 | 0.666 | 943 | 0.824 | 9850 | 0.654 | 866
